Assay results published in a compilation of properties of binary mixtures (doi:10.1021/acs.jced.8b00784).
Some of these densities may be calculated back from excess volumes.

Test: xn = mol fraction of the nth substance listed
Settings: 100 kPa

CCCC[n+]1ccn(C)c1.F[B-](F)(F)F + CC(=O)[O-].CCCC[n+]1ccn(C)c1
Settings	mass density [kg/m3]
298.15 K, x1 = 1	1201.2

CC(=O)[O-].CCCC[n+]1ccn(C)c1 + CCCC[n+]1ccn(C)c1.F[B-](F)(F)F
mass density [kg/m3]
Settings	x2 = 0	x2 = 0.1	x2 = 0.2	x2 = 0.3	x2 = 0.4	x2 = 0.5	x2 = 0.6	x2 = 0.7	x2 = 0.8	x2 = 0.9
298.15 K	1052.1	1066.3	1080.4	1094.3	1107.9	1122.1	1137	–	1168.1	1184.2
308.15 K	1043.1	–	1071.5	1085.6	1099.2	1113.3	1128.4	1144.2	1159.7	–
318.15 K	1037	1051.1	–	–	1092.9	1107.1	–	1137.7	1153.4	1169.2
